From the supplement of paper PMC8813932 come the findings set out here.

The structures appear in SMILES notation. Where a name gives a salt, the structure may show the parent alone. The list shows a part of the results. Most values come without repeats; read them as rough.

The assay concerns Ov4Carbo. Briefly: log2 surviving fraction relative to plate median (drug vs vehicle, or drug+dl922-947 vs dl922-947 alone); ovarian cancer lines: OVCAR4 is platinum-sensitive while Ov4Cis resists cisplatin and Ov4Carbo carboplatin; higher = more cell survival. Conditions: dl922-947 oncolytic adenovirus co-treatment: MOI 10; compound concentration: 10 uM; 192 h.
As for `CCOC(=O)c1cncn1[C@H](C)c1ccccc1` [Etomidate], the log2 surviving fraction was -0.132.
Turning to `CCCCN(CCCC)CCCOC(=O)c1ccc(N)cc1` [Butacaine], the log2 surviving fraction was 0.832.
In the case of `CCCCc1ncc(/C=C(\Cc2cccs2)C(=O)O)n1Cc1ccc(C(=O)O)cc1` [Eprosartan Mesylate], the log2 surviving fraction was 0.739.
The result for `Cc1ncc([N+](=O)[O-])n1CC(C)O` (stereo not given) [Secnidazole (Flagentyl)] reads -0.198; that for `O=c1cc[nH]c(=S)[nH]1` [2-Thiouracil], -0.0325; that for `Cc1cc(C#N)cc(C)c1Oc1nc(Nc2ccc(C#N)cc2)nc(N)c1Br` [Etravirine (TMC125)], -0.392.
Consider `CCOC(=O)N1CCC(=C2c3ccc(Cl)cc3CCc3cccnc32)CC1` [Loratadine], for which the log2 surviving fraction stood at 0.354.
For `Cc1nnc(NS(=O)(=O)c2ccc(N)cc2)s1` [Sulfamethizole (Proklar)] the value was 0.998.
For `CC(C)(C)NC(=O)[C@H]1CC[C@H]2[C@@H]3CC[C@H]4NC(=O)C=C[C@]4(C)[C@H]3CC[C@]12C` [Finasteride] the value was 0.634; for `CN(C)C(=O)C(CCN1CCC(O)(c2ccc(Cl)cc2)CC1)(c1ccccc1)c1ccccc1` [Loperamide hydrochloride], -4.84.
On to `O=C(N[C@H](CO)[C@H](O)c1ccc([N+](=O)[O-])cc1)C(Cl)Cl` [Chloramphenicol (Chloromycetin)], for which the log2 surviving fraction was -0.802.
For `CCCCOc1cc(C(=O)NCCN(CC)CC)c2ccccc2n1` [Dibucaine HCL] the value was -2.14.
The result for `CCCCCCCN(CC)CCCC(O)c1ccc(NS(C)(=O)=O)cc1` (stereo not given) [Ibutilide fumarate] reads -0.261; that for `CC(C)C[C@H](NC(=O)[C@H](CCc1ccccc1)NC(=O)CN1CCOCC1)C(=O)N[C@@H](Cc1ccccc1)C(=O)N[C@@H](CC(C)C)C(=O)[C@@]1(C)CO1` [Carfilzomib (PR-171)], -8.58; that for `Nc1nc(CC(=O)Nc2ccc(CCNC[C@H](O)c3ccccc3)cc2)cs1` [Mirabegron (YM178)], 0.191.
In the case of `CN1CCN(C2=Nc3cc(Cl)ccc3Nc3ccccc32)CC1` [Clozapine (Clozaril)], the log2 surviving fraction stood at 0.00762.
For `N=C(N)c1ccc(OCCCCCOc2ccc(C(=N)N)cc2)cc1` [Pentamidine] the value was -6.02; for `Cc1cccc(Nc2ccccc2C(=O)O)c1C` [Mefenamic acid], 0.16; for `CCN(CC)CCOC(=O)C1(C2CCCCC2)CCCCC1` [Dicyclomine HCl], -1.22.
For `O=C(C1CCCCC1)N1CC(=O)N2CCc3ccccc3C2C1` (stereo not given) [Praziquantel (Biltricide)], the log2 surviving fraction was -0.774.
